Reference: PubChem BioAssay AID493208 (National Center for Advancing Translational Sciences (NCATS), 2011)
Out of some 44,000 compounds screened, about 340 (0.77%) were called active. Not shown: some 5% with an inconclusive outcome. The call rests on the fitted dose curve; in most records, active means well fitted inhibition curve with a large enough effect; inconclusive means small, poorly fitted or top-dose-only effect; inactive means flat fitted curve, though single readings scatter. This is one part of the list.

Assay: Acumen qHTS Assay for Inhibitors of the mTORC1 Signaling Pathway in MEF (Tsc2-/-, p53-/-) Cells: Sytravon;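 further: plate controls were DMSO for no effect and rapamycin for full effect; nearly all actives have a fitted effect of over 50% in size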
Conditions: phospho-rpS6 immunofluorescence/PI, 24 h; series mostly up to 38.3 µM; activity change, negative = inhibition: at the top concentration
Summary of the method: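 Immunofluorescence of rpS6 phosphorylation in Tsc2-/-, p53-/- MEFs after 24 h compound exposure, normalized to propidium iodide signal. Activity is expressed as % positive cells, thresholded with 7.5 nM rapamycin.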

Row | Structure (SMILES) | activity change, negative = inhibition
1 | CCC(=O)C1=C(c2ccc(Cl)cc2)N(C(=O)CC)n2c(C)nnc2S1 | inactive: -8.35%
2 | CCS(=O)(=O)c1ccc(O)c(Nc2cc(C)nc(SC)n2)c1 | inactive: -7.64%
3 | O=C(CSc1oc(-c2ccco2)nc1S(=O)(=O)c1ccc(Br)cc1)c1ccccc1 | inactive: 2.49%
4 | CCCCn1c(=O)c2oc3ccccc3c2n(Cc2cccc(F)c2)c1=O | inactive: -9.22%
5 | CCC(C)Cn1c(/C=C/c2ccccc2)nc2ccccc21 (centres undefined) | inactive: -22.2%
6 | CCOC(=O)c1cccc(NC(=O)c2cc3c(=O)n(C)c4ccccc4c3n2C)c1 | inactive: 0.289%
7 | Cc1ccc(CNC(=O)CCN2C(=O)COc3ccc(C)cc32)cc1 | inactive: 5.82%
8 | Cc1ccc(NC2=C(CC(=O)O)C(c3ccc(F)cc3)N(c3ccc(C)cc3)C2=O)cc1 (centres undefined) | inactive: 0.231%
9 | O=C(CCCN1C(=O)c2cccnc2Oc2ccc(Cl)cc21)NCc1ccccc1F | inactive: 0%
10 | CC1CCN(S(=O)(=O)c2nnc(NC(=O)c3ccc(C(C)C)cc3)s2)CC1 | inactive: 10.7%
11 | CCN(CC)CCOC(=O)c1ccc(NC(=O)c2nn(C)c3c2COc2ccccc2-3)cc1 | inactive: -6.46%
12 | CCc1ccc(N2CCn3c2nc2c3c(=O)n(C/C=C/c3ccccc3)c(=O)n2C)cc1 | inactive: 6.75%
13 | Cc1ccc(CNC(=O)CC(C)CC2=NS(=O)(=O)c3ccccc3N2)cc1 (centres undefined) | inactive: -2.14%
14 | COc1ccc(NC(=O)c2c(NCc3ccc(N(C)C)cc3)sc3c2CCC3)cc1 | inactive: -8.46%
15 | Cc1ccsc1CN(C(=O)c1oc2ccc(F)cc2c1C)C1CCS(=O)(=O)C1 (centres undefined) | inactive: -1.51%
16 | Cc1ccc(Nc2ncc(C(=O)N3CCN(c4ccc(F)cc4)CC3)c3ccccc23)cc1Cl | inactive: -2.15%
17 | Cc1ccc(NC(=O)C2CCCN2S(=O)(=O)c2cccc3nsnc23)c(C)c1 (centres undefined) | inactive: -16.2%
18 | CCOc1ccc(-c2nonc2NC(=O)c2oc3cc(C)c(C)cc3c2C)cc1OCC | inactive: -2.09%
19 | Cc1ccc(C)c(-n2c3nc(=O)[nH]c(=O)c-3cc3c(C)nn(-c4ccccc4)c32)c1 | inactive: -1.34%
20 | CCc1ccc(NC(=O)c2ccc(F)c(S(=O)(=O)N3CCC4(CC3)OCCO4)c2)cc1 | inactive: -11.8%

Row | Structure (SMILES) | activity change, negative = inhibition
21 | COc1cccc(CNS(=O)(=O)c2cc3[nH]c(=O)c(=O)[nH]c3cc2C)c1 | inactive: -6.35%
22 | Cc1ccccc1Cn1c2ccccc2c2cnn(CC(=O)NC(C)CCc3ccccc3)c(=O)c21 (centres undefined) | inactive: -0.446%
23 | CCc1ccc2oc(C(=O)Nc3c(C)n(C)n(-c4ccccc4)c3=O)cc(=O)c2c1 | inactive: 2.3%
24 | CCOC(=O)c1ccc(N2C(=O)c3n[nH]c(C)c3C2c2ccccc2OC)cc1 (centres undefined) | inactive: 0.136%
25 | Cc1cccc(CCNc2ncnc3onc(-c4ccc(Cl)cc4)c23)c1 | inactive: 1.41%
26 | COC(=O)c1ccc(NC(=O)CN(CCc2ccccc2)S(=O)(=O)c2ccc(OC)cc2)cc1 | inactive: 2.22%
27 | Cc1cccc(Cn2nc(C)n3c(cc4cc(C)ccc43)c2=O)c1 | inactive: -6.44%
28 | Cc1ccc(C)c(N2CCN(c3ccc4cc(S(=O)(=O)N5CCC(C)CC5)ccc4n3)CC2)c1 | inactive: -3.63%
29 | Cc1ccc(C)c(N2CCN(C(=O)c3cc(C)nc4c3c(C)nn4-c3cccc(F)c3)CC2)c1 | inactive: -0.658%
30 | Cc1ccccc1OCC(=O)Nc1sc2c(c1C(=O)OC(C)C)CCCC2 | inactive: 8.49%
31 | CCOc1ccc(C(=O)NCCc2sc(-c3ccc(OC)c(OC)c3)nc2C)cc1 | inactive: -8.61%
32 | CCn1c(C(=O)NCc2ccc(OC(C)C)cc2)cc2oc3ccccc3c21 | inactive: 3.84%
33 | CCOc1ccc(-n2c(SCC(=O)N3CCC(C)CC3)nc3c([nH]c4ccccc43)c2=O)cc1 | inactive: 1.79%
34 | Cc1oc(-c2cccc(Cl)c2)nc1CS(=O)(=O)CC(=O)NCc1ccccc1Cl | inactive: -0.164%
35 | Cc1cccc(N2C(=O)C(CC(=O)Nc3ccc(Cl)cc3)N(Cc3ccco3)C2=O)c1 (centres undefined) | inactive: 0%
36 | CCCOc1ccc(C(=O)Nc2cc3c(cc2N2CCOCC2)n(C)c(=O)n3C)cc1 | inactive: 1.61%
37 | Cc1cccc(-n2c(=O)c3c(c4cc(C)ccc4n3C)n(CC(=O)NCC3CCCO3)c2=O)c1 (centres undefined) | inactive: -0.143%
38 | Cc1oc2ccc(O)c(CN3CCN(C)CC3)c2c1C(=O)Nc1cccc(Cl)c1C | inactive: -3.25%
39 | Cc1ccc2c(c1)c(=O)c1ccccc1n2CCCC(=O)Nc1cc(Cl)ccc1C | inactive: -12.4%
40 | COc1ccc2c(CNCc3cccs3)c(C(=O)O)n(Cc3ccc(C)cc3)c2c1 | inactive: 3.95%

Row | Structure (SMILES) | activity change, negative = inhibition
41 | Cc1nn(CC(=O)O)c(=O)c2cc3cc(F)ccc3n12 | inactive: -18.5%
42 | COC(=O)c1ccc(C2c3c(oc4ccccc4c3=O)C(=O)N2c2nc(C)c(C(=O)OC)s2)cc1 (centres undefined) | inactive: -9.15%
43 | O=C(Nc1cc(Cl)cc(Cl)c1)c1ccc2c(c1)N(Cc1cccc(Cl)c1)C(=O)c1ccccc1S2=O (centres undefined) | inactive: 3.62%
44 | COc1ccccc1NC(=O)c1cc(S(=O)(=O)N2CCN(c3ccccc3Cl)CC2)ccc1F | inactive: 11.8%
45 | COc1ccc(NC(=O)Cn2c(=O)n(Cc3nc(-c4ccccc4)no3)c(=O)c3cc4c(cc32)OCO4)c(OC)c1 | inactive: -1.06%
46 | Cc1nn(CC(=O)NCc2ccc(Cl)cc2)c(=O)c2cc3sccc3n12 | inactive: -7.06%
47 | O=C(Nc1ccc2oc(-c3cccnc3)nc2c1)c1ccc(Br)cc1 | inactive: 6.12%
48 | CC(=O)c1ccc(NC(=O)C2Cc3ccccc3N2C(=O)c2ccccc2)cc1 (centres undefined) | inactive: -16.3%
49 | Cc1ccc(N2CCN(S(=O)(=O)c3cc(C(=O)Nc4cc(Cl)cc(Cl)c4)ccc3F)CC2C)cc1 (centres undefined) | inactive: 5.31%
50 | CC(=O)Nc1nonc1-c1nnc(SCC(=O)Nc2cccc(F)c2)n1-c1ccccc1 | inactive: -0.602%
51 | COC(=O)c1scc(-c2ccc(C)cc2)c1S(=O)(=O)Nc1ccc(F)cc1F | inactive: 8.97%
52 | CN(C)S(=O)(=O)c1ccc2c(c1)N(CC(=O)NCc1ccc(F)cc1)C(=O)CS2 | inactive: -4.9%
53 | COc1ccc(C)cc1NC(=O)Cn1c(=O)c(C(F)(F)F)nc2ccccc21 | inactive: -6.11%
54 | COc1ccc(Oc2c(C(F)(F)F)oc3c(CN4CCCC(C)C4)c(O)ccc3c2=O)cc1 (centres undefined) | inactive: 1.62%
55 | Cc1ccc(NC(=O)Cn2cc3c(n2)CCCC3)c(Cl)c1 | inactive: 2.73%
56 | COc1ccccc1N1CCN(c2ccc(=O)n(CC(=O)NCc3ccc(OC(C)C)cc3)n2)CC1 | inactive: 0.226%
57 | Cc1cccc(-c2nc3scc(CCNS(=O)(=O)c4ccc(Oc5ccccc5)cc4)n3n2)c1 | inactive: -12.6%
58 | Cc1nn(C)c2c1c(C(F)(F)F)cc(=O)n2CC(=O)NCCC(C)C | inactive: -7.84%
59 | O=C(Nc1ccc2oc(-c3cccnc3)nc2c1)c1ccc(-c2ccccc2OC(F)(F)F)o1 | inactive: -2.93%
